Assay results as given in PubChem BioAssay AID1159614 (National Center for Advancing Translational Sciences (NCATS), 2016).
The campaign covered roughly 45,000 compounds. About 65 (0.1%) were called active. Calls come from the whole dose curve; as a rule, active = well fitted activation curve with a large enough effect; inconclusive = small, poorly fitted or top-dose-only effect; inactive = no such curve, though single readings can be large or run the other way. The list shows a part of the results.

Molecular target: Galactocerebrosidase (Homo sapiens) (UniProt P54803)
Test: A Novel Cell-Based Assay to Identify Small Molecules for B -Galactocerebrosidase; note: 0% is about no effect; nearly all actives have a fitted effect of over 65% in size
Settings: 145M-Twi-hGALC-G270D cells (Twitcher mouse brain line with human GALC G270D), HMU-beta-Gal fluorescence, 48 h; series mostly up to 57.5 µM; activation: at the top concentration
Procedure, shortened: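 Fluorogenic HMU-b-Gal hydrolysis (0.1 mM final, pH 5.2 citrate-phosphate with 1 mg/mL sodium taurocholate; carbonate stop buffer) measures mutant GALC activity after compound treatment of live 145M-Twi Twitcher brain cells stably carrying human GALC-G270D, with wild-type GALC line alongside; activation sought.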

Chain of UniProt P54803 (P54803 whole entry, looked up): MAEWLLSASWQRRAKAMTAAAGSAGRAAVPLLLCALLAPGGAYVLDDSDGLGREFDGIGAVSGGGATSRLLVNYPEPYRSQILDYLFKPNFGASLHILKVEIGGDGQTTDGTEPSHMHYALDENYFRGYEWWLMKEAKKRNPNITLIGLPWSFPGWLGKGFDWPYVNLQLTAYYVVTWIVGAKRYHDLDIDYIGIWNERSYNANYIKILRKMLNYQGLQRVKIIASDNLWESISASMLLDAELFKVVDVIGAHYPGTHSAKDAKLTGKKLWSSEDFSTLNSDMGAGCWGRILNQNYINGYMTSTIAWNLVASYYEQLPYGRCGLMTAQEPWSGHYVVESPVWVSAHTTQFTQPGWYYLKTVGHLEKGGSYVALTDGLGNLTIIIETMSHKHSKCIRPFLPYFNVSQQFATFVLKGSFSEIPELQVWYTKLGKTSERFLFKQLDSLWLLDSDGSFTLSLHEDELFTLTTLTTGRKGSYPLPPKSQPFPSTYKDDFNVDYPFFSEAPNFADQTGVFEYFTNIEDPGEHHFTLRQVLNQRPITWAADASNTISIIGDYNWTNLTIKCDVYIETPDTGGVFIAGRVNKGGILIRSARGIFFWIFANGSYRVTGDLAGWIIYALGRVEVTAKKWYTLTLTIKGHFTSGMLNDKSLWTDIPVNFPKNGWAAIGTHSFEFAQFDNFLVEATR

activation, inactive:
Cn1c(=O)oc2cc(S(=O)(=O)CCC(=O)NCCc3ccc(Cl)cc3)ccc21 -26.6%
CC(C)(C)OC(=O)N1CCC(c2c(C(=O)N3CCCCC3)cnn2-c2ccccc2Cl)CC1 -4.69%
CCn1cc(C(=O)O)c(=O)c2cc(F)c(N3CCNCC3)cc21 -0.723%
COc1ccccc1OCc1nc(C#N)c(NCc2ccc(C)cc2)o1 -13.1%
COc1ccc(-c2nn(-c3ccccc3)cc2C2NC(=O)NC(C)=C2C(=O)OC(C)C)cc1Cl (stereo unspecified) -25.8%
Cc1ccc(Cl)cc1N1CCN(S(=O)(=O)c2cc(Br)cc3c2N(C(=O)C2CC2)CC3)CC1 5.69%
CC(C)c1ccc(NS(=O)(=O)c2ccc3[nH]cc(C(=O)NCCc4ccccc4)c(=O)c3c2)cc1 -25.6%
CCOC(=O)c1cc(-c2ccc(F)cc2)n(CCC(=O)Nc2nc3ccc(OC)cc3s2)c1C -0.167%
CCOC(=O)CC(NC(=O)CCc1c(C)nc2c(c1C)c(=O)n(C)c(=O)n2C)c1ccc(OCC)c(OC)c1 (stereo unspecified) 12.9%
CC(=O)Nc1ccc(NC(=O)C(Cc2ccccc2)NS(=O)(=O)c2ccc3c(c2)oc(=O)n3C)cc1 (stereo unspecified) -13.5%
CCOc1cc(-c2ccc(OC(=O)c3ccc(OC)cc3)c(OC)c2)cc(=O)c2c(C)oc(C)c12 -15.9%
CCn1nc(C)c2c(-c3ccccc3)cc(=O)n(C(C)C(=O)NCCc3ccc(OC)c(OC)c3)c21 (stereo unspecified) -16.2%
Cc1ccc(-n2nc(C)c3c(C)cc(=O)n(CC(=O)NC(C)c4ccccc4)c32)cc1 (stereo unspecified) -11%
O=S(=O)(c1ccc(Cl)cc1)c1nnn2c1nc(NCc1ccc3c(c1)OCO3)c1sccc12 -9.33%
Cc1ccc(N=C2NC(=O)CC(C(=O)Nc3cc(C(F)(F)F)ccc3Cl)S2)cc1 (stereo unspecified) -3.02%
Cc1ccc(N(CC(=O)Nc2cc(C)ccc2C)S(=O)(=O)c2c(C)noc2C)cc1 -10.1%
CCS(=O)(=O)c1ncc(Cl)c(C(=O)Nc2ccccc2)n1 -10.8%
Cc1ccc(COC(=O)c2[nH]c3c(c2C)C(=O)CC(c2ccc(N(C)C)cc2)C3)cc1 (stereo unspecified) -18.2%
CC(=O)c1ccc(NC(=O)c2ccc(-n3cnnc3)cc2)cc1 -12.8%
CCC(=O)N1c2ccccc2CC1C(=O)NCc1ccc(N(C)C)cc1 (stereo unspecified) -5.03%
CCCCN(CC)CCNC(=O)C1CCCN(c2ncnc3onc(C)c23)C1 (stereo unspecified) -5.12%
COc1ccc(-n2c(SCC(=O)c3ccccc3)nc3c([nH]c4ccccc43)c2=O)cc1 -8.16%
COc1cc(Cl)c(NS(=O)(=O)c2cc(-c3cc(C)no3)ccc2OC)c(OC)c1 -14.7%
CCOc1ccccc1NC(=O)C1CCN(S(=O)(=O)c2ccc3c(c2)CCCN3C(C)=O)CC1 -11.9%
CC(=O)c1cccc(NS(=O)(=O)c2cc(-c3cnc(C4CC4)o3)ccc2C)c1 -31.7%
Cc1ccc(CSCCC(=O)NCc2ccc(F)cc2Cl)cc1 -4.52%
O=c1oc2c3c(ccc2c2ccccc12)OCN(Cc1ccccc1Cl)C3 -5.2%
O=S(=O)(NCC(c1ccco1)S(=O)(=O)c1cccs1)c1ccc(Cl)cc1 (stereo unspecified) -21%
CN(Cc1ccccc1)c1ncnc2c1nnn2C -17.7%
CCOc1ccc(C(=O)c2oc3ccccc3c2NC(=O)c2cc(-c3ccc(Cl)cc3)on2)cc1 3.35%
COc1ccc(-c2nnc(SCC(=O)N(C)C3CCCCC3)o2)cc1OC -17%
COC(=O)c1sccc1S(=O)(=O)N(CC(=O)Nc1ccccc1F)c1ccccc1 -24.5%
Cc1ccc(NC(=O)Nc2ccccc2OCc2cc(=O)n3ccccc3n2)c(Cl)c1 -2.25%
O=C(CCCCn1c(=O)c2ccccc2n(CC(=O)Nc2ccc(F)cc2F)c1=O)NCCc1ccccc1 -10.5%
COC(=O)c1c(NC(=O)Cc2coc3ccc(C(C)C)cc23)sc2c1CCC2 -2.09%
Cc1ccc(C(=O)NCCc2ccc(S(N)(=O)=O)cc2)cc1-n1cnc2cccnc21 -5.04%
Cc1cccc(C(=O)n2nc(-c3cccnc3)nc2NCc2ccccc2)c1 -18.9%
CCn1cc(C(=O)NCCCOC)c(=O)c2cc(S(=O)(=O)N3CCCC3)ccc21 -15.1%
Cc1nc(-c2ccccc2)sc1CCNS(=O)(=O)c1ccc(Br)cc1 -37.4%
CCNC(=O)Cc1ccc(NC(=O)N2CCCCc3ccccc32)cc1 -15.2%
CCN(CC)c1nn2c(=O)c(C(=O)NCc3ccc(F)cc3)cnc2s1 -13.8%
CCCn1c2ccccc2c2cnn(CC(=O)NCCc3ccc(OC)cc3OC)c(=O)c21 0.398%
COc1ccc(CC(=O)NCCc2csc(-c3ccc(Cl)cc3)n2)cc1 5.83%
CCn1nc(C)c(CCN(C)C(=O)Nc2cc(Cl)ccc2C)c1C -14%
O=C(Nc1ccc(Cl)cc1)N1CCN(c2ccc3nnc(-c4ccc(F)cc4)n3n2)CC1 2.8%
Cc1ccc(-n2nc(CO)c(C(=O)NCc3cccs3)n2)cc1 -24.7%
COc1cc2c(c(OC)c1OC)-c1ccc(OC)c(=O)cc1[C@@H](NC(C)=O)CC2 -10.2%
Cc1ccc(CNC(=O)CCS(=O)(=O)c2cc(Br)cc3c2N(C(=O)C2CC2)CC3)cc1 -15.8%
Cc1cc(NC(=O)Nc2nc3c(s2)CCCCCC3)ccc1Br -18.3%
CCCCn1c(CNC(=O)c2ccc(OC)cc2)nnc1SCC(=O)Nc1ccc(OC)cc1 -10.3%
Cc1ccc(NCc2nc3ccccc3n2CCOc2ccccc2)cc1 -8.58%
COc1ccccc1Nc1cc(C(=O)NCc2cccs2)c2ccccc2n1 -8.59%
CCC(=O)N1CCc2cc(S(=O)(=O)CCC(=O)NCc3ccccc3OC)ccc21 -1.94%
Cc1cc(C)c(S(=O)(=O)NCC(c2cccs2)S(=O)(=O)c2ccccc2)c(C)c1 (stereo unspecified) -18.1%
CN(C)S(=O)(=O)c1ccc2c(c1)N(CC(=O)N1CCN(c3ccc(F)cc3)CC1)CCS2 -18.2%
Cc1ccc(-c2nc(CS(=O)CC(=O)N3CCN(c4ccc(Cl)cc4)CC3)c(C)o2)cc1 (stereo unspecified) -10.1%
COc1ccc2nc3oc(C(=O)NCc4ccccc4OC)cc3cc2c1 -14.8%
NC(=O)CSc1ncc2c(n1)-c1ccccc1N(Cc1cccc(F)c1)S2(=O)=O -0.853%
COc1ccc(-c2noc(-c3nnn(-c4cc(C)ccc4C)c3N)n2)cc1 -24.9%
COc1ccccc1-c1nnc(C2CCN(C(=O)c3ccc(C)cc3)CC2)o1 -17.3%
Cc1ccc(-n2ncc(C(=O)NCCc3ccsc3)c2C2CCN(C(=O)OC(C)(C)C)CC2)cc1C -0.891%
